Reference: PMC4336329 (PLoS ONE, 2015)
The whole screen tested about 310,000 compounds, of which about 2,200 (0.71%) showed an effect of 50% or more. Effects have a minus sign here. The list shows a part of the results.

Target: human ether-à-go-go-related gene (hERG) potassium channel (human, UniProt Q12809)
Test: primary screen, population patch clamp on CHO cells stably expressing hERG

Chain of human ether-à-go-go-related gene (hERG) potassium channel (Q12809 whole entry, looked up): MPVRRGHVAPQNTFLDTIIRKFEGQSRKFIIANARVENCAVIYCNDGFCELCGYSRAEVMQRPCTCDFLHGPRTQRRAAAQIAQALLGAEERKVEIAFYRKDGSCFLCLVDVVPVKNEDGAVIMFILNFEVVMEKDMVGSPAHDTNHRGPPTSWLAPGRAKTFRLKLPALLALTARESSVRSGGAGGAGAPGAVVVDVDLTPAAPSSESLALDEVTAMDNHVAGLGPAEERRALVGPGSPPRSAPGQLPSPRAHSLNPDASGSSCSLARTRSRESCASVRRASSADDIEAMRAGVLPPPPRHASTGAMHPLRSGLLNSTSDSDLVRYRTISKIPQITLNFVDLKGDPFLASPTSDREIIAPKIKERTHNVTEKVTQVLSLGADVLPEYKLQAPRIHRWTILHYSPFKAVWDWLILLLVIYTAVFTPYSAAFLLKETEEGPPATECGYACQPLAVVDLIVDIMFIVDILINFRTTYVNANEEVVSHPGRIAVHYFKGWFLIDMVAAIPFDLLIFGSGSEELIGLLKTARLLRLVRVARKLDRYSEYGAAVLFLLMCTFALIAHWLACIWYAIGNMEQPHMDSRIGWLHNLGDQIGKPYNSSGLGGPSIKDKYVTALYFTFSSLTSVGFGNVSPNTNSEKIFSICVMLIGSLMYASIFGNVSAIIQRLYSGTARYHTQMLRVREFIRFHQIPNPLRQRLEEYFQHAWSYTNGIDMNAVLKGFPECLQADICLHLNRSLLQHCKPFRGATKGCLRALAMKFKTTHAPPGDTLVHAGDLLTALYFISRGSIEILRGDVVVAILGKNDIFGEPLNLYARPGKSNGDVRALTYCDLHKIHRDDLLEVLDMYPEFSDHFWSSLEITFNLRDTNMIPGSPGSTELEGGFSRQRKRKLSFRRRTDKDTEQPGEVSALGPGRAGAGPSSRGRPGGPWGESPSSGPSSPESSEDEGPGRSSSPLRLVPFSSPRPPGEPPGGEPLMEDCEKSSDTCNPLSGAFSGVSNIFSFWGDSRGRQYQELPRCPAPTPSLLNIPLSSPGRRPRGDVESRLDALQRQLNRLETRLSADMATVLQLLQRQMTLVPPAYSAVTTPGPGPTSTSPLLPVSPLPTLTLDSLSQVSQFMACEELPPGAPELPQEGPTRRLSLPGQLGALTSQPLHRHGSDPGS

Row | Compound | hERG current change (%, negative = inhibition) at 1uM [%]
1 | COc1ccc(Cl)cc1NC(=O)COC(=O)CNC(=O)c1ccc([N+](=O)[O-])c(C)c1 | 12
2 | C=CCn1c(SC(C)CC)nc(O)cc1=O (stereo not drawn) | 13
3 | CCN(c1ccc(C(O)(C(=O)OC)C(F)(F)F)cc1)S(=O)(=O)c1ccc(C)cc1 (stereo not drawn) | -9.81
4 | O=C(NN=C1CCCC1)c1cccc(O)c1 | 6.66
5 | Cc1nc(N(C)C)c2sc(=S)n(-c3ccccc3)c2n1 | 16.9
6 | CC(C)C[C@H](NC(=O)OC(C)(C)C)c1n[nH]c(=S)n1N | 17.9
7 | CC(CN1CCCCC1)NC(=O)c1cc(-c2ccccn2)nc2ccc(Cl)cc12 (stereo not drawn) | 0.196
8 | COc1ccc2nc(C)cc(N3CC(C)OC(C)C3)c2c1 (stereo not drawn) | -12.8
9 | Cc1c(C#N)c2ncnc(-c3ccccc3)c2n1-c1ccccc1 | 7.29
10 | CCN(CC)S(=O)(=O)c1ccc(N2CCCC2)c(NC(=O)c2nn(C)c(=O)c3ccccc23)c1 | 1.74
11 | Cc1onc(-c2c(F)cccc2Cl)c1C(=O)NC1=NCCS1 | -3.9
12 | O=c1c2cc(Br)ccc2nc(-c2ccccc2)n1O | 22.3
13 | O=C(O)CCCn1nc(-c2ccccc2)c2ccccc21 | 10.7
14 | C/C(=N\NC(=S)Nc1ccccc1)C1Cc2ccccc2C(=O)O1 (stereo not drawn) | 5.98
15 | Cn1cc(C(=O)c2ccc(Cl)cc2Cl)cc1C(=O)O | 14.2
16 | CC(=O)N(c1ccccc1Cl)S(=O)(=O)c1ccc(Cl)cc1 | 19.7
17 | CSc1ccc(CNc2nnnn2C)cc1 | -0.772
18 | CC(C)CC(c1nnnn1CC1CCCO1)N1CCN(Cc2ccc3c(c2)OCO3)CC1.Cl (stereo not drawn) | 1.27
19 | O=C(O)c1cc2ccccc2cc1Nc1ccccc1 | 6.84
20 | Cc1ccccc1Cn1cc(NC(=O)c2cc(-c3ccco3)on2)cn1 | 3.58
21 | CCOC(=O)C1C(c2ccc(O)c(O)c2)NC(=S)NC1(O)C(F)(F)F (stereo not drawn) | -6.08
22 | COc1cccc(-n2nnc3c(=O)n(CC(=O)OCc4ccccc4)cnc32)c1 | 17.5

Row | Compound | hERG current change (%, negative = inhibition) at 1uM [%]
23 | C/C(=N\NC(=O)c1cc(-c2ccncc2)nc2ccccc12)c1ccc(N2CCOCC2)cc1 | 10.3
24 | Cc1ccccc1-c1nc(CN2CCC(C(=O)NCc3cccnc3)CC2)c(C)o1 | -0.546
25 | CCCCNC(=O)CCCCCn1c(=O)[nH]c2cc(OC)c(OC)cc2c1=O | 16.5
26 | CCN1CCN(C(=S)c2ccc([N+](=O)[O-])cc2)CC1 | -0.224
27 | CSc1ncccc1C(=O)N(C)CC(=O)Nc1ccc(Cl)c(C(F)(F)F)c1 | 2.77
28 | O=C(c1ccccc1F)N1CCN(C(=O)C(c2ccccc2)c2ccccc2)CC1 | 7.62
29 | COc1cc(O)c(C(CCN2CCOCC2)c2cc(OC)c(OC)c(OC)c2)c(OC)c1 (stereo not drawn) | 9.63
30 | O=C(CCN1CCN(Cc2ccccc2)CC1)NNC(=O)Nc1cccc([N+](=O)[O-])c1 | 10.4
31 | O=C(CSc1nc(-c2ccco2)cc(C(F)(F)F)n1)N1CCN(Cc2ccccc2)CC1 | 0.0739
32 | COc1cc(/C=C2/SC(=O)N(CC(=O)N3CCCC3)C2=O)ccc1Oc1ccc([N+](=O)[O-])cn1 | 7.76
33 | Cl.O=C(NC1CCCCC1)NC1CCN(CC(=O)N2CCOCC2)CC1 | 16.9
34 | Cc1cc(C)c(NC(=O)CNC(=O)Cc2ccc(S(=O)(=O)N3CCOCC3)s2)c(C)c1 | 11.8
35 | CC1=CC(C)(C)N(C(=O)CSc2ncn[nH]2)c2ccccc21 | 8.74
36 | Cc1ccc(CNC(=O)CN2C(=O)CSc3ccc(S(=O)(=O)N4CCCCC4)cc32)cc1 | 8.32
37 | CCCc1cc(=O)[nH]c(SCC(=O)N2CCN(S(=O)(=O)c3ccc(Cl)cc3)CC2)n1 | 7.69
38 | CC1(OC(=O)CCc2ccccc2)C(=O)C=C2C=C(c3ccc(C#N)cc3)N(c3ccccc3)C=C2C1=O (stereo not drawn) | 11.7
39 | C=CCSc1nc(=O)n2ccccc2n1 | 15.4
40 | COc1cccc(-c2cc(C(=O)Nc3nc4ccccc4s3)c3ccccc3n2)c1 | -7.44
41 | CC(C)(C)OC(=O)[C@H](Cc1ccccc1)NC(=O)c1nc[nH]c1C(=O)NCC(=O)OCc1ccccc1 | 8.94
42 | CCCN1C(=O)CC(C(=O)OC)=C1C | 12.5
43 | COc1cc(/C=C/C(=O)OCC(=O)Nc2ccc3c(c2)OCCO3)ccc1O | 7.33
44 | COC(=O)[C@@]1(Cc2ccc(F)cc2)[C@@H]2[C@@H](CC(=O)[C@H]2CC(=O)C(=O)N(C)C)CN1C(=O)c1ccccc1 | -0.408

Row | Compound | hERG current change (%, negative = inhibition) at 1uM [%]
45 | CCOc1ccc(NC(=O)CN(C)C(=O)c2ccccc2OCc2c(C)noc2C)cc1OCC | 14.6
46 | CC(C)CCn1c(N2CCc3ccccc3C2)nc2c1c(=O)[nH]c(=O)n2C | 8.85
47 | CCOC(=O)c1c(-c2ccc(OC)cc2)csc1NC(=O)CCN1C(=O)c2ccccc2C1=O | 8.98
48 | CCc1nc(SCC(=O)Nc2ccccc2Cl)n[nH]1 | 12.7
49 | CS(=O)(=O)N1CCc2cc(C(=O)N3CCOCC3)ccc21 | 11.8
50 | Cc1cccc(OCCOCCN2CCNCC2)c1C.O=C(O)C(=O)O | -0.5
51 | CCOC(=O)c1c(C)oc2ccc(OC(=O)c3cccs3)cc12 | -11.6
52 | COc1cc(OC)cc(C(=O)Nc2cccnc2)c1 | 4.39
53 | OC(CCN1CCOCC1)c1ccccc1 (stereo not drawn) | 4.74
54 | Nc1nonc1-c1nc2ccccc2n1CC(=O)N/N=C/c1ccc(-c2ccccc2C(=O)O)o1 | 11.9
55 | O=C(O)CNS(=O)(=O)c1c(Cl)cccc1Cl | 14.5
56 | O=C(NCc1n[nH]c(=S)n1-c1ccc(Br)cc1)c1ccc(S(=O)(=O)N2CCCC2)cc1 | 13.3
57 | O=C1NC(=O)N(c2cccc(Cl)c2)C(=O)/C1=C\c1ccc(Sc2nc3ccccc3[nH]2)o1 | 10.1
58 | CC(=O)c1ccc(N2CCN(C(=O)Nc3ccc(F)cc3)CC2)cc1 | -2
59 | COc1ccc(-c2nnc(SCC(=O)NC(=O)NCc3ccco3)o2)cc1 | 11.7
60 | CCCN(CC(=O)Nc1ccccc1OC)C(=O)Cc1ccc2c(c1)CCC2 | 4.36
61 | O=C(CSc1nc2ccccc2s1)N1c2ccccc2Sc2ccc(C(F)(F)F)cc21 | 5.36
62 | CCc1ccc2nc(SCC(=O)N(CC)CC)c(C#N)cc2c1 | -1.58
63 | CC(=O)c1c(O)c2ccccc2n(C)c1=O | 17
64 | Cc1nc2c(Br)c(C)nn2c2c1CCC2 | 14.8
65 | CCOC(=O)c1cn2nc(N3CCCCC3)ccc2n1 | 4.77
66 | COc1cccc(-c2csc3nc[nH]c(=O)c23)c1 | 12.9

Row | Compound | hERG current change (%, negative = inhibition) at 1uM [%]
67 | Cc1cccc(NC(=S)N=Nc2c(O)n(C)c3ccc(S(=O)(=O)N4CCOCC4)cc23)c1 | 0.0603
68 | N#Cc1cc(N)ccc1Sc1ccc(Cl)cc1 | 15.8
69 | COc1cc(C)ccc1OCCOCCOc1ccccc1[N+](=O)[O-] | -6.33
70 | CCN(CC(=O)Nc1ccc(NC(C)=O)cc1)C(=O)c1cccc(S(=O)(=O)N2c3ccccc3CC2C)c1 (stereo not drawn) | 0.214
71 | CCN(CC(=O)NCc1ccc(Cl)cc1)C(=O)/C=C/c1cc(OC)c(OC)c(OC)c1 | 11.2
72 | Cn1c(C(=O)N2CCN(C(=O)c3ccco3)CC2)cc2c(=O)n(C)c3ccccc3c21 | -1.12
73 | COc1ccc(C)cc1N(CC(=O)N1CCCC1)S(C)(=O)=O | 9.85
74 | O=C(Oc1ccc([N+](=O)[O-])cc1)c1ccc2ccccc2n1 | 7.68
75 | O=c1[nH]nc(Cc2ccccc2)c2ccccc12 | 11.9
76 | CC1CCCN(CCCNC(=O)c2ccc3c(c2)N(Cc2ccccc2F)C(=O)c2ccccc2S3(=O)=O)C1 (stereo not drawn) | 19.7
77 | COC(=O)C(C#N)C(=C1C(=O)CC(C)(C)CC1=O)c1ccc(O)cc1 (stereo not drawn) | 17.9
78 | COCCNC(=O)CN1c2ccccc2CC1C (stereo not drawn) | 6.18
79 | O=C(COC(=O)/C=C/c1ccccc1F)Nc1nnc(-c2ccccc2)o1 | 7.16
80 | CCc1cccc(NC(=O)CCc2nc3sc4c(c3c(=O)[nH]2)CCCC4)c1 | -0.886
81 | O=C(Nc1ccc(F)cc1)/C(=C1/CCCCCN1)[N+](=O)[O-] | 10.6
82 | CCCNC(=S)N1CCC(c2nc3cc(C)c(C)cc3[nH]2)CC1 | 4.91
83 | OCCN(Cc1ccccc1)Cc1nc(CC2CC2)no1 | 4.94
84 | COc1ccc(Cl)cc1NC(=O)NCc1cccnc1 | 5.53
85 | CCCCC(=O)NC(c1ccc(OC)c(OC)c1)c1c(O)ccc2ccccc12 (stereo not drawn) | 7.85
86 | CCOc1ccc(NC(=O)CCn2ccnc2)cc1 | 17.3
87 | Cc1ccc(C(=O)NNC(=O)CSc2n[nH]c(-c3cccnc3)n2)cc1 | 15.6
